{"source": "PubChem BioAssay AID1345082", "about": "(National Center for Advancing Translational Sciences (NCATS), 2018)", "note": "About 4,000 (4.3%) of roughly 94,000 compounds were called active. This list was built around the results that the source calls inconclusive (neither active nor inactive); the mix of calls is not that of the screen. The call rests on the fitted dose curve; in most records, active means well fitted inhibition curve with a large enough effect; inconclusive means small, poorly fitted or top-dose-only effect; inactive means no such curve, though single readings can be large or run the other way. Where the call is inconclusive, the potency comes from a doubtful curve fit. On the % scale 0 is the no-effect control and ±100 the full control effect; potency means the concentration at half of the fitted maximal effect; tags describe the fitted curve by direction and shape."}
{"assay": "Cytotoxic Profiling in NIH 3T3 Cell Line of Diverse Libraries Using Quantitative High-Throughput Screening; further: nearly all actives have a fitted effect of over 55% in size", "conditions": "NIH 3T3 viability, CellTiter-Glo ATP luminescence, 48-72 h; activity change, negative = cytotoxicity: at 96.7 µM (top of the series) unless noted; series mostly up to 96.7 µM", "method_in_brief": "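Cytotoxicity is measured as loss of cellular ATP: NIH 3T3 cells (400/well) are exposed to compound for 48 or 72 hr at 37 °C, then CellTiter-Glo luminescence is imaged after 10 min at room temperature.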"}
{"compound": "CC(=O)N[C@H]1C[C@@H](Cc2cc(C(C)(C)C)on2)C1(C)C", "Potency": "inconclusive: 141 µM [inhibitor, single point]"}
{"compound": "Cc1cc(C)cc(-c2ccc(CN3CCCC(N[S+](=O)([O-])c4cccc(C(F)(F)F)c4)C3)cc2)c1", "note": "(centres undefined)", "Potency": "active: 31.6 µM"}
{"compound": "COc1cccc(CNC(=O)c2nc3cccnc3n(C3CCCCC3)c2=O)c1", "Potency": "inconclusive: 50.1 µM [inhibitor, partial curve, poor fit]"}
{"compound": "O=C1c2cnc(-c3cccc(C(F)(F)F)c3)nc2OCCN1CC1CC1", "Potency": "inconclusive: 100 µM [inhibitor, single point]"}
{"compound": "CCN1C(=O)CCN(C(=O)c2cc(C)n(C)n2)CC12CCOCC2", "activity change, negative = cytotoxicity": "inactive: -12.1%"}
{"compound": "N#Cc1ccccc1CN1CCNc2nc(CNCc3ccccc3)n(Cc3ccccc3)c2C1=O", "Potency": "inconclusive: 44.7 µM [inhibitor, partial curve, poor fit]"}
{"compound": "COc1ccc(-c2noc(-c3nnn4c3COC(c3ccc(F)cc3)C4)n2)cc1F", "note": "(centres undefined)", "activity change, negative = cytotoxicity": "inactive: -20%"}
{"compound": "COc1ccc(-c2cc(N3CCC(NC(=O)c4ccc(F)cc4Cl)C3)n[nH]2)cc1", "note": "(centres undefined)", "Potency": "inconclusive: 56.2 µM [inhibitor, partial curve, poor fit]"}
{"compound": "CNC(=O)[C@@H](c1ccc(Cl)cc1)N1CCC[C@H]1C(=O)N1CCN(C)CC1", "activity change, negative = cytotoxicity": "inactive: 3.61%"}
{"compound": "O=C(CCCc1ccccc1)N1CCC(c2noc(-c3ccccc3)n2)C1", "note": "(centres undefined)", "Potency": "inconclusive: 44.7 µM [inhibitor, partial curve, poor fit]"}
{"compound": "COc1ccccc1C(O)c1nc(Nc2ccc(C(C)C)cc2)n[nH]1", "note": "(centres undefined)", "Potency": "inconclusive: 89.1 µM [inhibitor, partial curve]"}
{"compound": "CSc1cccc(NC(=O)Cn2c(-c3ccc(Cl)cc3)nc(C)c(CCO)c2=O)c1", "activity change, negative = cytotoxicity": "inactive: -12.7%"}
{"compound": "O=C(c1ccc(F)cc1)N1CCCC(C(=O)N2CCCC(c3nc4ncccc4[nH]3)C2)C1", "note": "(centres undefined)", "activity change, negative = cytotoxicity": "inactive: -30.4%"}
{"compound": "COc1ccc(CN2CCC(CO)(CN3CCCC3)CC2)cc1OC", "Potency": "inconclusive: 89.1 µM [inhibitor, single point]"}
{"compound": "COc1ccc(CC(=O)N2CCN(c3nccc(Nc4ccccc4F)n3)CC2)cc1", "Potency": "inconclusive: 44.7 µM [inhibitor, partial curve, poor fit]"}
{"compound": "CC1=C[C@@H](CNC(=O)NCc2ccccc2)[C@H](C(C)C)C[C@H]1CC(=O)N1CCN(C)CC1", "activity change, negative = cytotoxicity": "inactive: -1.07%"}
{"compound": "C[C@@H]1CN(c2cnc3ccccc3n2)CC[C@@]1(O)C1CCC1", "Potency": "inconclusive: 56.2 µM [inhibitor, partial curve, poor fit]"}
{"compound": "O=C(NC[C@H]1O[C@H](Cc2cc(COc3ccccc3)on2)CC[C@@H]1O)Nc1ccccc1", "Potency": "inconclusive: 44.7 µM [inhibitor, partial curve, poor fit]"}
{"compound": "CNC(=O)[C@@H]1CN(C(=O)c2ccc(C(C)C)cc2)C[C@H]1CO", "activity change, negative = cytotoxicity": "inactive: -17.9%"}
{"compound": "CCc1cccc(Nc2nc(-c3ccc(OC)c(OC)c3)no2)c1", "Potency": "inconclusive: 44.7 µM [inhibitor, partial curve, poor fit]"}
{"compound": "O=C(NCCCN1CCc2ccccc2C1)c1c(OCC2CC2)cc(=O)n2c1CCCCC2", "Potency": "inconclusive: 70.8 µM [inhibitor, single point]"}
{"compound": "O=c1n(-c2ccncc2)nc2n1CCN(Cc1ccc(C(F)(F)F)cc1)C2", "Potency": "inconclusive: 10 µM [inhibitor, full curve]"}
{"compound": "Cc1nc(NCc2csc(-c3cnccn3)n2)cc(C2CC(O)C2)n1", "note": "(centres undefined)", "Potency": "inconclusive: 31.6 µM [inhibitor, partial curve, poor fit]"}
{"compound": "CN1C[C@H](NCc2cccc(Cl)c2)CCC[C@@H](C(=O)NCc2cc(F)cc(F)c2)CC1=O", "Potency": "inconclusive: 44.7 µM [inhibitor, partial curve, poor fit]"}
{"compound": "COc1ccc(-c2cn3c(n2)CO[C@@H](CNC(=O)c2ccccc2OC)C3)cc1", "activity change, negative = cytotoxicity": "inactive: -6.55% [at 138 µM]"}
{"compound": "Cc1nn(-c2ccc(C(C)C)cc2)c(C)c1[C@@H]1C=C[C@@H](NC(=O)Nc2ccccc2)C1", "Potency": "active: 50.1 µM"}
{"compound": "O=C(NCCc1cccs1)c1ccc(Cn2ccn3nc4c(c3c2=O)CCCC4)cc1", "Potency": "inconclusive: 12.6 µM [inhibitor, partial curve, poor fit]"}
{"compound": "COCCN1CCNc2cc(Nc3cccc(N(C)C)c3)ncc2C1", "Potency": "inconclusive: 100 µM [inhibitor, partial curve, poor fit]"}
{"compound": "OC[C@@H]1CN(Cc2ccncc2F)C[C@H]1c1nc(-c2cccnc2)no1", "activity change, negative = cytotoxicity": "inactive: -13.8%"}
{"compound": "COc1ccc(-c2cc(-c3ccc4c(c3)C(=O)NC4)cn3cncc23)cc1", "Potency": "inconclusive: 17.8 µM [inhibitor, full curve, poor fit]"}
{"compound": "O=C(O)COc1ccc(-c2nccc3c2C(=O)N(Cc2c[nH]c4ccccc24)CC(CNC(=O)Cc2ccc(Cl)cc2)O3)cc1", "note": "(centres undefined)", "Potency": "inconclusive: 70.8 µM [inhibitor, single point]"}
{"compound": "COc1ccc(CN2C[C@@H]3C[C@H]2C(=O)Nc2ccccc2O3)cc1", "activity change, negative = cytotoxicity": "inactive: -12.8% [at 138 µM]"}
{"compound": "CC(c1nccs1)N(C)C(=O)c1csc2nc(-c3ccccc3Cl)cn12", "note": "(centres undefined)", "Potency": "active: 50.1 µM"}
{"compound": "Oc1ccccc1CNC1(Cc2cc(-c3ccccc3)on2)COC1", "Potency": "inconclusive: 79.4 µM [inhibitor, partial curve, poor fit]"}
{"compound": "Cc1nn(-c2ccccc2)c2c1C(C)N(CC1CN(C(=O)c3ccccc3F)C1)C2=O", "note": "(centres undefined)", "Potency": "inconclusive: 44.7 µM [inhibitor, partial curve, poor fit]"}
{"compound": "CC1=C[C@@H](CNS(=O)(=O)c2ccccc2)[C@H](C(C)C)C[C@H]1CC(=O)NCc1ccc(C#N)cc1", "Potency": "inconclusive: 50.1 µM [inhibitor, partial curve, poor fit]"}
{"compound": "COc1ccc(-c2cc(N3CCC(NC(=O)c4ccc5c(c4)OCO5)CC3)n[nH]2)cc1", "Potency": "inconclusive: 44.7 µM [inhibitor, partial curve, poor fit]"}
{"compound": "O=C(Nc1cccc(-c2ccc(N3CCOCC3)nn2)c1)Nc1cccc(C(F)(F)F)c1", "Potency": "inconclusive: 28.2 µM [inhibitor, full curve, poor fit]"}
{"compound": "COCCNC(=O)C1COC2(CCN(C(=O)c3ccccc3F)CC2)N1C(=O)c1ccco1", "note": "(centres undefined)", "activity change, negative = cytotoxicity": "inactive: -11.8%"}
{"compound": "CCOC(=O)[C@@H]1[C@@H](OC)C(=O)N(C)C12CCN(C(=O)c1cc(OC)c(OC)c(OC)c1)CC2", "Potency": "inconclusive: 44.7 µM [inhibitor, partial curve, poor fit]"}
{"compound": "O=C1NCCCCCN(C(=O)Nc2ccccc2)[C@H]2CCCC[C@@H]12", "activity change, negative = cytotoxicity": "inactive: 3.9%"}
{"compound": "Cc1cnc(-c2cccnc2)n1CC1CCN(C2CCOCC2)CC1", "activity change, negative = cytotoxicity": "inactive: -7.5%"}
{"compound": "CC(C)C(C(=O)N1CCC2(CC1)CN(C)CCN2C)c1ccc(Cl)cc1", "note": "(centres undefined)", "activity change, negative = cytotoxicity": "inactive: -11.7%"}
{"compound": "COc1ccc(OC)c(C(C)NCc2cn[nH]c2-c2ccc(F)cc2)c1", "note": "(centres undefined)", "activity change, negative = cytotoxicity": "inactive: -17.6%"}
{"compound": "COC(=O)N1CCC(C(=O)N2CCC(c3nc4ncccc4[nH]3)CC2)C1", "note": "(centres undefined)", "Potency": "inconclusive: 44.7 µM [inhibitor, partial curve, poor fit]"}
{"compound": "Fc1ccc2c(c1)nc1n2[C@@H](CNC2CCOCC2)COC1", "Potency": "inconclusive: 89.1 µM [inhibitor, partial curve]"}
{"compound": "CCCNc1cc(N2CCC(CCC(=O)O)CC2)ncn1", "activity change, negative = cytotoxicity": "inactive: 2.2%"}
{"compound": "CCOC(=O)NC1CCCN(Cc2cccc(-c3ccc(C)c(Cl)c3)c2)C1", "note": "(centres undefined)", "Potency": "inconclusive: 44.7 µM [inhibitor, partial curve, poor fit]"}
{"compound": "CCCc1nc(NCc2nc(Cc3cccs3)no2)c2cnn(C)c2n1", "Potency": "inconclusive: 20 µM [inhibitor, full curve]"}
{"compound": "c1cc(CN2CC(Oc3ccc4c(c3)OCO4)C2)cs1", "activity change, negative = cytotoxicity": "inactive: -8.41%"}
{"compound": "Cc1ccccc1CNC(=O)[C@@H]1OCCN(C2CC2)[C@H]1c1ccccc1", "activity change, negative = cytotoxicity": "inactive: -5.31%"}
{"compound": "O=C(Cn1cccc1-c1nc(-c2ccccc2)no1)N1CCN(c2ccccc2F)CC1", "activity change, negative = cytotoxicity": "inactive: -20%"}
{"compound": "O=C(NC[C@H]1Cn2c(-c3ccc(F)cc3)cnc2CO1)NC1CCCCC1", "Potency": "inconclusive: 100 µM [inhibitor, partial curve, poor fit]"}
{"compound": "O=C(C1CC1)N1CCN(Cc2ccccc2-c2ccccc2F)CC1", "Potency": "inconclusive: 44.7 µM [inhibitor, partial curve, poor fit]"}
{"compound": "CCN1c2cc(C(=O)Nc3cccc(C(F)(F)F)c3)ccc2C(=O)N2CCCCCC21", "note": "(centres undefined)", "Potency": "inconclusive: 15.8 µM [inhibitor, full curve, poor fit]"}
{"compound": "COc1ccc(CN[C@H]2C[C@H]3C(=O)NC[C@@H](CCC(=O)N4CCCCC4)N3C2)cc1", "activity change, negative = cytotoxicity": "inactive: -5.49% [at 138 µM]"}
{"compound": "O=C(NC1CCc2ccccc21)C1CCN(C(=O)c2ncn3c2COC(c2ccccc2)C3)CC1", "note": "(centres undefined)", "activity change, negative = cytotoxicity": "inactive: -0.746%"}
{"compound": "O=C1NCc2ccccc2CC12CCCN2Cc1ccc(OC(F)(F)F)cc1", "note": "(centres undefined)", "Potency": "inconclusive: 50.1 µM [inhibitor, partial curve, poor fit]"}
{"compound": "O=C1CC2(CCN(C(=O)C3CCN(C(=O)C4CCCC4)C3)CC2)Oc2ccccc2N1", "note": "(centres undefined)", "activity change, negative = cytotoxicity": "inactive: -32.5%"}
{"compound": "Cc1nc(N2CCCCC2)n(CC(=O)Nc2cccc(Cl)c2)c(=O)c1C", "Potency": "inconclusive: 39.8 µM [inhibitor, partial curve, poor fit]"}
{"compound": "Cc1cn2nc(C(=O)Nc3ccc(C(F)(F)F)cc3)cc2c(N2CCSCC2)n1", "Potency": "inconclusive: 6.31 µM [inhibitor, full curve, poor fit]"}
{"compound": "O=C(CCc1ccc(F)cc1)c1ccc2nnc(-c3cncc(Cl)c3)n2c1", "Potency": "inconclusive: 35.5 µM [inhibitor, partial curve, poor fit]"}
{"compound": "O=C(CCC1CCCC1)N1CCC(c2noc(COc3ccc(F)cc3)n2)C1", "note": "(centres undefined)", "Potency": "inconclusive: 44.7 µM [inhibitor, partial curve, poor fit]"}
{"compound": "CCc1nc2c(c(-c3ccc(Cl)cc3)n1)CCN(C(=O)c1ccccc1OC)CC2", "Potency": "inconclusive: 56.2 µM [inhibitor, partial curve, poor fit]"}
